The chains are these.
B1: LINE1-mini (parent)
chain: GGCAGAGCUCAACACAGCGUGGCAAAGUGGCUGUGGCUAGACUGCC

The source gives no read counts; variants with many changes may rest on few reads.

In this series the parent is B1. Briefly: self-cleavage, relative activity (ratio to wild type); higher = more cleavage; in vitro, sequencing; the parent is a self-cleaving ribozyme.
Consider CGCAGAGCUCAACACGGCGUAGAAAAGUGGCUGUGGCUAGACUGCC [G1C A16G G21A C23A], for which the self-cleavage amounted to 0.08.

Regarding CGCAGAGCUCUACACAGCGUGGCAAAGUGGCUGUGACUAGUCUGCC [G1C A11U G36A A41U], the self-cleavage was found to be 0.

With CGCAGAGCUCAGCACAGCGUGGCAAAGUGGCUGUGGCUAGACUGCA [G1C A12G C46A], the self-cleavage worked out at 0.01.

For CGCAGAGCUCAUCACAGCAUGGCAAAGUGGCUGUGCCUAGACUGCC [G1C A12U G19A G36C], the self-cleavage is 0.01.

Take CGCAGAGCUCAACACGGCGUGGCAAAUUGGCUGUGGCUAGACUGCC [G1C A16G G27U]: the self-cleavage was 0.1.

As to CGCAGAGCUCAACACGGCGUGGCAAAGUGACCGUGGCUAGACUGCC [G1C A16G G30A U32C], the self-cleavage stood at 0.03.

As to CGCAGAGCUCGACACAGCGUGGCAAAGUGGCUGUGGCAAGACUGCC [G1C A11G U38A], the self-cleavage came out at 0.

Turning to CGCAGAGCUCAACACGGCGUCGCAAAGUGGCUGUGGCUAGACUGCC [G1C A16G G21C], the self-cleavage stood at 0.07.

For CGCAGAGCUCAUCACAGCGUGUCAAAGUGGCUGAGGCUAGACUGCC [G1C A12U G22U U34A], the self-cleavage is 0.02.

For the variant CGCAGAGCUCGACACAGCGUGGCAAAGUAGCUGUGGCUAGACUGCC [G1C A11G G29A], the self-cleavage worked out at 0.03.

As to CGCAGAGCUCCACACAGCGUGGCAAAGUGGCGGUGGCUAGACUGCC [G1C A11C U32G], the self-cleavage is 0.01.

As for CGCAGAGCUCGACACAGCGUGGCGAAGUCGCUGUGGCUAGCCUGAC [G1C A11G A24G G29C A41C C45A], the self-cleavage is 0.01.

Take CGCAGAGCUCAACGCAGCGUGGCAAAGUGGCUGUGGUUAGACUGCC [G1C A14G C37U]: the self-cleavage was 0.01.

Consider CGCAGAGCUCAACGCAGCGUGGCAAAGCGGCUGUGGCAAGACUGCC [G1C A14G U28C U38A], for which the self-cleavage is 0.

For the variant CGCAGAGCUCCACACAGCGUGGCAAAGAGGCUGUGGAUAGAUUGCC [G1C A11C U28A C37A C42U], the self-cleavage was 0.

For CGCAGAGCUCAACUCAGCGUGGCAAAGUGGCUUUGGCUAGACUGCC [G1C A14U G33U], the self-cleavage was determined as 0.04.

With CGCAGAGCUCAACUCAGCGUCGCAAAGUGGCUGCGGCUAGACUGCC [G1C A14U G21C U34C], the self-cleavage is 0.01.

Take CGCAGAGCUCAACACUGCGAGGUAAAGUGGCUAUGGCUAGACUGCC [G1C A16U U20A C23U G33A]: the self-cleavage was found to be 0.01.

Consider CGCAGAGCUCAGUACUGCCUGGCAAAGUGGCUGAGGCUAGACUGGC [G1C A12G C13U A16U G19C U34A C45G], for which the self-cleavage stood at 0.01.

Turning to CGCAGAGCUCUACACAGCGUGGCAAAGUGGCUGUGGCUACACUGCC [G1C A11U G40C], the self-cleavage came out at 0.01.

Take CGCAGAGCUCGGCACAGCGUGGGAAAGUGGCUGUGGCUAGACUGCC [G1C A11G A12G C23G]: the self-cleavage was 0.01.

With CGCAGAGCUCACCACAGCGUGGCAAAGUGACUUUGGCUAUACUGCC [G1C A12C G30A G33U G40U], the self-cleavage came to 0.03.

In the case of CGCAGAGCUCAACACGGCGUGGCAAAGCAGCUGUGGCUGGACUGCC [G1C A16G U28C G29A A39G], the self-cleavage came out at 0.05.

Take CGCAGAGCUCAUCACAGCGUGGCAAAGUGGCUGUGGCUACACUGCC [G1C A12U G40C]: the self-cleavage is 0.01.

In the case of CGCAGAGCUCAACCCAGAGUGGCAAACUGGCUGUGGCUAGACUGCC [G1C A14C C18A G27C], the self-cleavage was found to be 0.03.

Consider CGCAGAGCUCAACGCAGCGUGGCAUAGUGGCUAUGGCUAGCUUGCC [G1C A14G A25U G33A A41C C42U], for which the self-cleavage came to 0.02.

On to CGCAGAGCUCAACGCAGCGUGGCAAAGUGCCUGAGGCUAGACUGCC [G1C A14G G30C U34A], for which the self-cleavage came out at 0.

CGCAGAGCUCAACACGACGCGGCAAAGCGGCUGUGGCUAGACUGCC [G1C A16G G17A U20C U28C]: the self-cleavage was 0.15.

Take CGCAGAGCUCUACACAGCGUGGCAAAGUCUCUGUGGCUAAACUGCC [G1C A11U G29C G30U G40A]: the self-cleavage stood at 0.01.

In the case of CGCAGAGCUCAACACUGCGUGGCAAAGUGGCUGUGGCAAGACUGCC [G1C A16U U38A], the self-cleavage amounted to 0.01.

Regarding CGCAGAGCUCAACACAGCGUGGCCGAGUGGUUGUGUCUAGACUGCC [G1C A24C A25G C31U G36U], the self-cleavage is 0.02.

As to CGCAGAGCUCAACACCGCGUGGCAAAGUGGCUGUGCCUAGACUGCC [G1C A16C G36C], the self-cleavage was determined as 0.01.

As to CGCAGAGCUCAACACCGCGUGGCAAAGUGGCUGUGUCUAGACUGCC [G1C A16C G36U], the self-cleavage is 0.02.

Take CGCAGAGCUCUACACAGCGUGGCAAAGUGGCUGUGGCUAGACUGCG [G1C A11U C46G]: the self-cleavage came to 0.09.

As to CGCAGAGCUCAACACGGUGUGGCAAAGUGGCUGUGGCUAGUCUGCC [G1C A16G C18U A41U], the self-cleavage turned out to be 0.1.

Consider CGCAGAGCUCAUCACAGCGUGGCAAAGUGGCUGAGGCUAGACUGCG [G1C A12U U34A C46G], for which the self-cleavage came to 0.01.

In the case of CGCAGAGCUCACCACAGCGUGGCAAAGUGGCUGUGGCUAGAUUCCC [G1C A12C C42U G44C], the self-cleavage was 0.02.

For CGCAGAGCUCAGCACAGCGUGGCAAUGUGGCUGUGGUUAAACUGCC [G1C A12G A26U C37U G40A], the self-cleavage turned out to be 0.07.

As for CGCAGAGCUCAUCACAUCGUGGCAAAGUGCCUGUGGCUAGACUGCC [G1C A12U G17U G30C], the self-cleavage worked out at 0.04.

As for CGCAGAGCUCAACACUGCGUGGCAACGUGGCUGUGGAUAGACUGCC [G1C A16U A26C C37A], the self-cleavage was 0.14.

Turning to CGCAGAGCUCAUCACAGCAUGGGAAAGCGGCUGUGGCUAGACUGAC [G1C A12U G19A C23G U28C C45A], the self-cleavage was found to be 0.08.

On to CGCAGAGCUCGACACAGCGUGGCAAAAUGGCUGUGGCUAGACUGCC [G1C A11G G27A], for which the self-cleavage was 0.01.

In the case of CGCAGAGCUCAUCACAGCGUGGCAAAGUGGCUGAGGCUAGACUGCC [G1C A12U U34A], the self-cleavage came to 0.01.

As for CGCAGAGCUCGACACAGCGUAGCAAAGUGGCUGUUGCUAGACUGCC [G1C A11G G21A G35U], the self-cleavage stood at 0.01.

For CGCAGAGCUCAGCACAGCGGGGCACAGUGGCUGUGGCUAGACUGCC [G1C A12G U20G A25C], the self-cleavage came out at 0.

Take CGCAGAGCUCUACACAGCGUGGCAAAGUGGCUGUAGCUAGACUGCC [G1C A11U G35A]: the self-cleavage turned out to be 0.

In the case of CGCAGAGCUCAACACAGCGUGGCCAAGUGGCUGUGGCUAGUCUGCC [G1C A24C A41U], the self-cleavage came out at 0.05.

For CGCAGAGCUCAUCACAGAGUGGCAAAGUGGCUGUAGAUAGACUGUC [G1C A12U C18A G35A C37A C45U], the self-cleavage worked out at 0.

As to CGCAGAGCUCAACACGGCGUGGCAAAGUGUCUGUGGCUAGACUCCC [G1C A16G G30U G44C], the self-cleavage turned out to be 0.03.

In the case of CGCAGAGCUCAACGCAUCGUGGCAAAGUGGCUGUGGCUAGACUGCC [G1C A14G G17U], the self-cleavage came out at 0.04.

Take CGCAGAGCUCUCCACAACGUGGUAAAGUGGCUGUCGCUAGACUGCC [G1C A11U A12C G17A C23U G35C]: the self-cleavage amounted to 0.

As for CGCAGAGCUCAACCCAGCGUAGCAAAGUGGCUUUGACUAGAGUGCC [G1C A14C G21A G33U G36A C42G], the self-cleavage was found to be 0.01.

In the case of CGCAGAGCUCUAAACAGCGUGCCAAAGCGGCUGUGGCUAGGCUGCC [G1C A11U C13A G22C U28C A41G], the self-cleavage was found to be 0.

On to CGCAGAGCUCAACGCAGCGUGGCAAGGUGGCUGUGGCUAGACUGCC [G1C A14G A26G], for which the self-cleavage is 0.04.

Take CGCAGAGCUCAUCACAGCUUGUCAAAGUGGCUGUGGCUAGACUGCC [G1C A12U G19U G22U]: the self-cleavage was 0.02.

As for CGCAGAGCUCAACUCAGCGCGGCAAAGUGGCUGUGGCUAGACUGCC [G1C A14U U20C], the self-cleavage amounted to 0.

Source of the values: the RNAGym collection of RNA variant scans (doi:10.7554/elife.90254).
